This is one part of the list. At the low end of the ranking, values are background and their order means little.

The target of this assay is T1, ELK1 (UniProt P19419).
T1 sequence: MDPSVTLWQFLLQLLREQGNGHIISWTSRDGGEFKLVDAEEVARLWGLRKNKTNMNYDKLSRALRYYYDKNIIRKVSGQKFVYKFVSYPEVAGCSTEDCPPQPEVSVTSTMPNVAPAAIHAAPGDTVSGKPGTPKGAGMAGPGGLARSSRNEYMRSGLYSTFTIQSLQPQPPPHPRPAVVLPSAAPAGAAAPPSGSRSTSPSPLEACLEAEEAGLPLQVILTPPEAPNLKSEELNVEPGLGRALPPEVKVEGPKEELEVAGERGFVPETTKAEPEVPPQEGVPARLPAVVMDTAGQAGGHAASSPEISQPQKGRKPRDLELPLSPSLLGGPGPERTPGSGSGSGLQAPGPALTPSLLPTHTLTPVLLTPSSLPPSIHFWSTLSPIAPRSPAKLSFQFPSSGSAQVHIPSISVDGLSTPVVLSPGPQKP
In words: custom PBM. To be noted: custom protein-binding microarray; buffer, salt, pH and temperature not stated; high values mean tight binding; double strand, one strand shown.
Turning to “CAGCATAGGACTTCTTCCCTGAAGCAATTGATGACCGTCTTGATTCGCTTGACGCTGCTG”, the binding signal (log fluorescence intensity) was 8.87. With “CAGCATAGAACTTCTTCCCTGAAGCAATTGATAACCGTCTTGATTCGCTTGACGCTGCTG”, the binding signal (log fluorescence intensity) turned out to be 8.83.

“TAAAGGGAAGACGGTTGTGGTAGTTCCGGGTATGAAGTCTTGATTCGCTTGACGCTGCTG”: the binding signal (log fluorescence intensity) is 11.4. For “GGAAAAAGGCCCACGGTAACACCGGAAGTGGGCTTAGTCTTGATTCGCTTGACGCTGCTG”, the binding signal (log fluorescence intensity) came out at 11.2. On to “TCAGGCTACCAGCTCCACCCACTTCAGGCCTTGTAGGTCTTGATTCGCTTGACGCTGCTG”, for which the binding signal (log fluorescence intensity) worked out at 8.73. As to “CACAATTTTTACAGTAATGTAGCACGCGTAGCTCCTGTCTTGATTCGCTTGACGCTGCTG”, the binding signal (log fluorescence intensity) stood at 9.06. As to “GTGTCTAGGATCCCATCCAACACACGTGTTAAAATGGTCTTGATTCGCTTGACGCTGCTG”, the binding signal (log fluorescence intensity) is 8.94. In the case of “GCTGCAGCGGTGCATACCCCACCGGATGTGACCCCGGTCTTGATTCGCTTGACGCTGCTG”, the binding signal (log fluorescence intensity) worked out at 10.1. The same measure for “GCTGCTGCGGTGCATACACCACCGGATGTGACCCCGGTCTTGATTCGCTTGACGCTGCTG”: 10.2. On to “TCCGGCTACCAGCTCCACCCTCTTCAGGCCTTGTAGGTCTTGATTCGCTTGACGCTGCTG”, for which the binding signal (log fluorescence intensity) was determined as 9. In the case of “GCTGCTGCGGTGAATACCCCACCGGATGTGACCCCGGTCTTGATTCGCTTGACGCTGCTG”, the binding signal (log fluorescence intensity) came to 10.4. In the case of “GGAAAAAGGCCCAGGGTAACACCGGAAATGGGCTTAGTCTTGATTCGCTTGACGCTGCTG”, the binding signal (log fluorescence intensity) amounted to 10.3. Turning to “TCCGGCTTCCAGCTCCACCCACTTCAGGCCTTGTAGGTCTTGATTCGCTTGACGCTGCTG”, the binding signal (log fluorescence intensity) was determined as 9.08. The same measure for “CAACATAGGACTTCTTCCCTGAAGCAATTGATAACCGTCTTGATTCGCTTGACGCTGCTG”: 8.8. Next, “GCTGCTCCGGTGCATACCCCACCGGATGTGACCCCGGTCTTGATTCGCTTGACGCTGCTG”: 12.3. The same measure for “TGTCGAGTAAGGGAATGTAGATCACGTGAATGAAAAGTCTTGATTCGCTTGACGCTGCTG”: 8.95. In the case of “TCCGGCTACCAGCTCCGCCCACTTCAGGCCTTGTAGGTCTTGATTCGCTTGACGCTGCTG”, the binding signal (log fluorescence intensity) was 8.79. As for “GGAAAAAGGCCCAGGTTAACACCGGAAGTGGGCTTAGTCTTGATTCGCTTGACGCTGCTG”, the binding signal (log fluorescence intensity) was found to be 11.1. The same measure for “CACAATTTTTACAGTAATGTAGAACGCGTAACTCCTGTCTTGATTCGCTTGACGCTGCTG”: 8.89; for “GATTAATTTCTGCCCTTATTCGCACGTGCCAAAACAGTCTTGATTCGCTTGACGCTGCTG”: 8.96; for “GGAAAAAGGCCGAGGGTAACACCGGAAGTGGGCTTAGTCTTGATTCGCTTGACGCTGCTG”: 10.9. For the sequence “TGTCGGGTAAGGGAATGTAGAGCACGTGAATGAAAAGTCTTGATTCGCTTGACGCTGCTG”, the binding signal (log fluorescence intensity) is 8.88. “TGTCGGGTAAGGGAATGTAGATCACGAGAATGAAAAGTCTTGATTCGCTTGACGCTGCTG”: the binding signal (log fluorescence intensity) amounted to 8.83. The same measure for “TGTCGGTTAAGGGAATGTAGATCACGTGAATGAAAAGTCTTGATTCGCTTGACGCTGCTG”: 8.82; for “TGTCGGGAAAGGGAATGTAGATCACGTGAATGAAAAGTCTTGATTCGCTTGACGCTGCTG”: 8.89; for “GATTAATTTCTGCCCTTATTCCCACGTGCCATAACAGTCTTGATTCGCTTGACGCTGCTG”: 8.94. As for “TACTGATTTATATATGCGAATGCACATGAATAGACCGTCTTGATTCGCTTGACGCTGCTG”, the binding signal (log fluorescence intensity) was determined as 8.91. Regarding “TCCGGCTACCAGCTCCACCCACTTCAGGCCTTATAGGTCTTGATTCGCTTGACGCTGCTG”, the binding signal (log fluorescence intensity) was 8.86. Next, “GGTCGGGTAAGGGAATGTAGATCACGTGAATGAAAAGTCTTGATTCGCTTGACGCTGCTG”: 8.83.

Take “TCCGGCTACCAGCTCCACCCACTTCAGGACTTGTAGGTCTTGATTCGCTTGACGCTGCTG”: the binding signal (log fluorescence intensity) came to 8.95. Consider “GACTAATTTCTGCCCTTATTCGCACGTGCCATAACAGTCTTGATTCGCTTGACGCTGCTG”, for which the binding signal (log fluorescence intensity) came to 8.95. For “CACAATTTTTACAGTACTGTAGCACGCGTAACTCCTGTCTTGATTCGCTTGACGCTGCTG”, the binding signal (log fluorescence intensity) is 8.94. For the sequence “TGTGGGGTAAGGGAATGTAGATCACGTGAATGAAAAGTCTTGATTCGCTTGACGCTGCTG”, the binding signal (log fluorescence intensity) was found to be 8.71.

In the case of “CACAATTTTTACAGTAATGTAGCACGCGTAACTCCGGTCTTGATTCGCTTGACGCTGCTG”, the binding signal (log fluorescence intensity) was 8.72.

With “TGTCGGGTAAGAGAATGTAGATCACGTGAATGAAAAGTCTTGATTCGCTTGACGCTGCTG”, the binding signal (log fluorescence intensity) turned out to be 8.77. Take “CAGCATGGGACTTCTTCCCTGAAGCAATTGATAACCGTCTTGATTCGCTTGACGCTGCTG”: the binding signal (log fluorescence intensity) came to 8.92. For the sequence “CACAATTTTTACAGTAATGTAGCATGCGTAACTCCTGTCTTGATTCGCTTGACGCTGCTG”, the binding signal (log fluorescence intensity) worked out at 8.94.

Regarding “CAGCATAGGACTTCTTCCCTGAAGTAATTGATAACCGTCTTGATTCGCTTGACGCTGCTG”, the binding signal (log fluorescence intensity) stood at 8.66. Consider “GATTAATTTCTGCCCTTATTCGCACGTGCCACAACAGTCTTGATTCGCTTGACGCTGCTG”, for which the binding signal (log fluorescence intensity) amounted to 8.75. Regarding “TAAAGGGAAGAAGGTTGTGGTAGTTCCGGGTATTAAGTCTTGATTCGCTTGACGCTGCTG”, the binding signal (log fluorescence intensity) was 11.2. Turning to “CACAATTTTTAAAGTAATGTAGCACGCGTAACTCCTGTCTTGATTCGCTTGACGCTGCTG”, the binding signal (log fluorescence intensity) was found to be 8.83.

The record behind these values is PMC6602471.
